Measured values as given in the RNAGym collection of RNA variant scans (doi:10.7554/elife.90254).
Read counts are not given, so values of variants with three or more changes are uncertain.

B1: LINE1-full (parent)
chain: UACGUAGGUGGUUUUCCCCUGAUAGUGCUAAGGGGGCCUGGAAGUUUGGACUGGGCAGAGCUCAACACAGCGUGGCAAAGUGGCUGUGGCUAGACUGCCUCUCUGGAUUCCUCGUCACUCAGCAGGGCAUCUCUGAGAGAAAUGCC

Variants of: B1
Assay: self-cleavage, relative activity (ratio to wild type); higher = more cleavage; in vitro, sequencing; the parent is a self-cleaving ribozyme

| Variant | self-cleavage |
| --- | --- |
| U20A A31C U45C | 2 |
| U12G C71A A78G A121G | 0.39 |
| U9C A42G U46C A50G G60A G126U | 0.19 |
| A79G A92G A142G | 0.27 |
| U14C C16A U39A A43G G72U U100C A129U | 0.67 |
| U15C U29C A42G A138G A142G | 2.76 |
| U13C U23C A50G A64G | 0 |
| A43U U109C A138C | 1.72 |
| A43G U45G A94G U134C | 2.45 |
| U26A U39C A57U U100C C113U | 0.18 |
| A43U A94U U102C A140G | 0.34 |
| A67G U81A U96C U109C | 0 |
| U100C U104C A141G | 2.3 |
| U1A U39C U102A U112C | 1.27 |
| A50U A117G U143C | 1.86 |
| U26G U85A U143A | 0.09 |
| U26C C111U U132C | 1.58 |
| A24G A43G C84G C131G A142G | 0.5 |
| G36A A43G U45C A142G | 0.75 |
| U13C U39A A50G A77G A107G U119A | 1.15 |
| U12G C38U U134C | 1.05 |
| U14C A57C C76U U143A | 0.06 |
| A42G U45C U46C U143C | 2.63 |
| A57U U115A A124G | 0.03 |

| Variant | self-cleavage |
| --- | --- |
| U9A U100C A107G | 1.53 |
| U14C A121U A142G | 0.97 |
| U87A U132A A141G | 0.09 |
| A22U U87A A136G | 0.13 |
| U13C U52C U91C | 0.63 |
| A42G A69G U109C U112C | 0 |
| U9C U13A A78U | 1.23 |
| U15G C68U U85C U134A | 0.08 |
| U45C U96A U130C | 0.07 |
| C3U U91C U96C | 0 |
| G34A A78G U81C | 0.86 |
| U13A U39A U73C A78G | 1.55 |
| C63U A79G A121U A140G | 0.29 |
| U102C A124U A142G | 0.79 |
| U12G U14A U47C A69U U100C | 0.65 |
| A31U U47A G55C | 0.19 |
| U14C A78G U102A | 1.46 |
| A22U U134C A141G | 0.84 |
| U15C C16U U102C | 1.88 |
| U15A A24G A78C | 1.11 |
| G7U U20C A64G G106U A117U U130C | 0.14 |
| A57G A64U A78U U87A | 0.07 |
| U39A A92G G127C | 0.13 |
| A6G A94G U108C U119A | 0 |

| Variant | self-cleavage |
| --- | --- |
| U15A A64G U130C | 0.23 |
| U20C U62C A140G | 0.1 |
| U14C U23C U46C U112C U119C | 1.15 |
| U85G A121U U132C | 0 |
| A6G U62C U91A | 0.33 |
| G34A A57G A142G | 0.75 |
| A50G A57G U130C U134A | 0.71 |
| A22U A78U U85C U115C A121G | 0.42 |
| C16A U29C U96A A140G | 0.16 |
| U45C A65C G86A U132C A136C | 0.08 |
| A22G A77G G127A U134G | 1.91 |
| U13A A31G U45C | 0.57 |
| A67G C133A G144A | 0.77 |
| G36A U115C A121G C145A | 1.6 |
| U15C G53C U73C G105U | 1.66 |
| U5C U108A U109A | 0.86 |
| A69G A129C A141G | 0.74 |
| G40A A141G U143A | 0.48 |
| U14C U130C A140G U143C | 0.51 |
| U9C U23C C66U U85C | 0.06 |
| C37U U85G U96C | 0.07 |
| A43G U73G U108C A117U | 1.21 |
| U62A A64G U115C | 0.15 |
| G7C U52A A138G | 1.96 |

| Variant | self-cleavage |
| --- | --- |
| U1A U104C U109A | 1.7 |
| G54U A77G A129G | 0.49 |
| U9C U23C U62C U132C A136G | 0 |
| A59U U115C U130C | 0.62 |
| G7A U14C U130C | 0.86 |
| U26C U52C A64G C123U U132C | 0.04 |
| C71U G88A C113U | 0.02 |
| C56U U96C A129U | 0.06 |
| U9C U12C A59G U87A A124U | 0.44 |
| U13C U62C A77G A107G G114C | 0 |
| U15C U47C C76U U85G A121G | 0.19 |
| A30G C84G U96C U109A A140G | 0.15 |
| G35A C131A A140G | 1.53 |
| U14C A57U G93A A94G | 0.09 |
| A30G A42G U108C | 0.77 |
| U20C U45A A65U A77U | 0.2 |
| U12G U14C A43G A79G G82A A107G | 0.37 |
| U62C A64G A69G | 0 |
| U12G U15A A78G A124G | 0.59 |
| G34U A69G U85C A138G | 1.04 |
| A2G U87C U115C | 0 |
| U85G A121U A138G A140U A142G | 0 |
| U14C G54U A64G A65G A79U | 0 |
| A24G U115A A138G | 1.88 |

| Variant | self-cleavage |
| --- | --- |
| A50G A69U A138U | 0.03 |
| A2U A67U U130C C145G | 0.29 |
| A67G A77U U100C | 0.83 |
| G32U A59C U62C A69G | 0 |
| A92G U108A A117G | 0 |
| U104A A138U A140G | 1.73 |
| C51A C56A A57G U108A C110A A121G | 0.02 |
| G53U U102C U115C | 0.68 |
| A64C A69G A141G | 0.08 |
| A43G U96C U112C | 0 |
| G10A U45C A69U U85G U132C | 0.92 |
| U45C U47C C71A U81A | 0.39 |
| G10A A50G U132A | 1.2 |
| U14C G82U U104C | 1.45 |
| A6U G27A C51G | 0.84 |
| U26C U45C A50G | 1.02 |
| U12C U13C A43G A57U G74U | 0.24 |
| U20A A65G A67U U96A A140G | 0.05 |
| U39A U52C A67U | 0.28 |
| G82A A129U G144U | 2.1 |
| U100A U109C G125U | 0.88 |
| G49U U73C U132C A136G | 1.41 |
| U45G U73G A92U | 0.16 |
| A69G C113U U134C | 0.36 |

| Variant | self-cleavage |
| --- | --- |
| G11A U26C A65G | 0.05 |
| U15C C28U A64G | 0.26 |
| U9A U47C A67U A117C C118U A124G | 0.15 |
| A77U G114A A124U C128U | 0.89 |
| C18U G53A A59G | 0.05 |
| U26C U46C G48U | 1.79 |
| U5C U14C A141G | 1.51 |
| U9C G54U A69U A94U | 0.04 |
| U14C U62C U73C | 0.09 |
| U13C C84U A138U | 0.1 |
| U9C U12A G27A A57G A138G U143C | 1.1 |
| U46A U73A U85C C101A A121U | 0.11 |
| G89U U102C A121G | 0.08 |
| U73A U96A U134C | 0.02 |
| G72A U87C U102C U108C A138G | 0.32 |
| A43G U45C U96C A121U | 0 |
| U12A U108A A136G | 0.84 |
| U13C G54A A107G A117C | 1.99 |
| U119C C123U A142G | 1.37 |
| U39A U62C A64U G114A U132A | 0.03 |
| U13C C28G U47C A107U U112C A117U A129G | 1.97 |
| U108C C116A A141G | 1.17 |
| U13A U87A A92G U119G | 0.32 |
| U52C A65G A79G | 0 |

| Variant | self-cleavage |
| --- | --- |
| U13C C37U U119C G139A | 1.52 |
| U13C G75A U104A | 0.84 |
| A2G U14C A30G U73A | 0.98 |
| U73C U81C U85C | 0.35 |
| A64G A79G U115A | 0.43 |
| U13C U52C U73G | 1.31 |
| C28U U46A U119A | 1.2 |
| U20C U62C U81A A124G | 0 |
| G40A A57U G82A | 0.11 |
| A50U A57G U108C | 1.21 |
| A64G U109C A117U A136G U143C | 0.27 |
| U20G U73C U119A | 0.5 |
| A67G U81C U112C | 0 |
| A6G U81A U108C | 0.63 |
| C37U A69C U115A U143G | 0.08 |
| U62C U100G A124U | 0 |
| C63U U112C U130C | 0.21 |
| U12C A65G U112A A124G A138G | 0 |
| U46A U73A A141G | 1.11 |
| A2G U52C A124G | 0.57 |
| U1C U73C C116A | 0.95 |
| U62C U100C A141G | 0.06 |
| A22G A79G U108C | 2.63 |
